About 1,100 (0.39%) of roughly 280,000 compounds were called active. The shares of active, inactive and inconclusive entries below differ from those in the screen. The call rests on the fitted dose curve; in most records, active means well fitted inhibition curve with a large enough effect; inconclusive means small, poorly fitted or top-dose-only effect, or effect the other way; inactive means flat fitted curve, though single readings scatter. Potencies of inconclusive entries are doubtful fits and often do not repeat.
target: Microtubule-associated protein tau (Homo sapiens) (UniProt P10636); assay: qHTS for Inhibitors of Tau Fibril Formation, Fluorescence Polarization; details: K18 P301L tau heparin fibrillization, Alexa594 FP, 6 h; series mostly up to 57.7 µM; further: nearly all actives have a fitted effect of over 55% in size
Outline: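 K18 P301L tau (15 uM unlabeled/0.24 uM Alexa 594-labeled, final) + compound + heparin 20 uM final; 100 mM NaOAc pH 7; 6 hr 37 C; ThT 30 uM final added, 1 hr RT; FP ex 555/em 632 nm.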
Potency means the concentration at half of the fitted maximal effect; tags describe the fitted curve by direction and shape.

Chain of UniProt P10636 (P10636 whole entry, looked up): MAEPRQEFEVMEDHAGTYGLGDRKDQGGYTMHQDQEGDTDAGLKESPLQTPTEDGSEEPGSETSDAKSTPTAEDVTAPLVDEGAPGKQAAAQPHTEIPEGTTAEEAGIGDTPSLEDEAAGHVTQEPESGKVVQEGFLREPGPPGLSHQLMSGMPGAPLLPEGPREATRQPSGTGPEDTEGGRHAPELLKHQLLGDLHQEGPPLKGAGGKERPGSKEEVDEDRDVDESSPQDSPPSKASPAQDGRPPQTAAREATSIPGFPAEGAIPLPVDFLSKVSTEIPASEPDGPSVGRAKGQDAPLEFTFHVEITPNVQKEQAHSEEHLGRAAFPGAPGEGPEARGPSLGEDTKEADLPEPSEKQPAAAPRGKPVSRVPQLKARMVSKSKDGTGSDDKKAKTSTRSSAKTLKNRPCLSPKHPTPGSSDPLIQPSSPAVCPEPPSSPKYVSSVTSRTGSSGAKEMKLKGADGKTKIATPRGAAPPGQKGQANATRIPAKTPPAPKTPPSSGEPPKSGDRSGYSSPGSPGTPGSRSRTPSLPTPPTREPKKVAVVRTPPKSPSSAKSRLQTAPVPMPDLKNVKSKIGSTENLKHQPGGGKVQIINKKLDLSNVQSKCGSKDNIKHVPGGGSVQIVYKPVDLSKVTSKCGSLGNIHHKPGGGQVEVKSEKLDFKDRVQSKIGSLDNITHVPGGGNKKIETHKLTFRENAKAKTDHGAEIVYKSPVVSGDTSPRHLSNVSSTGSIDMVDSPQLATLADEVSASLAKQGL

Potency, inactive:
Cc1cc(C)nc(N/N=C/C2=C(O)CC(c3ccccc3)CC2=O)n1 (configuration not stated)
COc1ccc(Nc2nc(-c3ccc4c(c3)NC(=O)CO4)cs2)cc1
Cc1csc(Nc2ccccc2)[n+]1-c1ccccc1
CCN(CC)S(=O)(=O)c1ccc(NC(=O)c2nn(C)c3c2CSc2ccccc2-3)cc1
CCc1ccccc1OCc1nc2ccc(S(=O)(=O)N3CCOCC3)cc2[nH]1
Cc1ccc(Cl)cc1NC(=S)N(CCCN1CCN(C)CC1)Cc1cccs1
COc1ccc(/C=C2\CCn3c2nc2cc(C(=O)O)ccc2c3=O)cc1O
Nc1ccc(C(=O)Nc2nc3ccccc3s2)cc1
Cc1ccc(-c2oc3ccccc3c(=O)c2OCC(=O)O)cc1
COC(=O)CC(=O)CSc1nc2cc(C(=O)NC(C)C)ccc2c(=O)n1CCc1ccccc1
Cc1cc(NC(=O)CSc2nnc3c(C)cc4cc5c(cc4n23)OCO5)no1
CCn1c2c(c(C)cc1=O)C(=O)CC(C)(C)C2
Cc1ccc(NC(=O)C(=O)C2C(=O)Nc3ccccc32)cc1 (configuration not stated)
c1ccc(C(c2ccccc2)N2CCN(Cc3nc(-c4cnccn4)no3)CC2)cc1
O=C(Oc1ccc(/C=N/Nc2ccccc2)cc1)c1ccccc1
Cc1cc(Br)c2c(c1)/C(=C/C(=O)c1cccs1)C(=O)N2
CS(=O)(=O)N(CC(=O)NCCSC1CCCCC1)c1ccc2c(c1)OCO2
Cc1ccc2[nH]c(=O)c(C(c3nnnn3CCc3ccccc3)N3CCOCC3)cc2c1 (configuration not stated)
CCN=c1scc(C)n1/N=C/c1cc(Br)c(O)c(OC)c1

Potency, inconclusive:
[O-]/[N+](=C/c1ccc(F)cc1)c1ccc(Cl)cc1 28.2 µM [inhibitor, single point]
COc1ccc2cc(/C=N/NC(=O)CN(c3ccccc3)S(=O)(=O)c3ccccc3)c(Cl)nc2c1 20 µM [inhibitor, partial curve]
CC1CCN(C(=O)CCS(=O)(=O)c2cc3c(cc2Cl)NC(=O)CO3)CC1 35.5 µM [inhibitor, single point]
O=C(c1cc(-c2ccc(Br)cc2)n[nH]1)N1CCN(S(=O)(=O)c2ccc(Br)s2)CC1 39.8 µM [inhibitor, single point]
Cc1cc(NC(=O)c2ccc(F)cc2)ccc1-c1cc2ccccc2oc1=O 10 µM [inhibitor, partial curve]
CCOC(=O)c1ccc(N2C(=O)c3[nH]nc(-c4ccc(C)cc4)c3C2c2ccc(O)cc2)cc1 (configuration not stated) 28.2 µM [inhibitor, partial curve]
CCC(=O)N1CCc2cc(Br)cc(S(=O)(=O)CCC(=O)Nc3ccc(CC)cc3)c21 0.224 µM [inhibitor, full curve, poor fit]
S=C(NCc1ccccc1)N1CCc2ccccc2C1 44.7 µM [inhibitor, single point]
O=C1C=C(Nc2ccccc2C(=O)O)c2ccccc2C1=O 22.4 µM [inhibitor, single point]
CCOC(=O)C1CCCN(C(=O)/C=C/c2ccccc2[N+](=O)[O-])C1 (configuration not stated) 8.91 µM [inhibitor, single point]
Cc1ccc(-c2noc(COc3ccc4c(c3)OCO4)n2)cc1 39.8 µM [inhibitor, single point]
Cn1nc(-c2ccc(N3CCCCC3)c(NC(=O)c3ccco3)c2)c2ccccc2c1=O 35.5 µM [activator, single point]
COc1ccc2cc(CN(Cc3cccnc3)S(=O)(=O)c3ccccc3)c(=O)[nH]c2c1 20 µM [inhibitor, single point]
O=C(Nc1ccc(Cl)cc1)c1ccc2oc(=O)n(Cc3ccccc3)c2c1 28.2 µM [inhibitor, partial curve]
CS(=O)(=O)c1ncc(Cl)c(C(=O)N2CCN(c3cccc(Cl)c3)CC2)n1 28.2 µM [inhibitor, single point]
CC(C)Oc1ccc(CNC(=O)c2cc3cccc4c3n2CC(C)S4)cc1 (configuration not stated) 22.4 µM [inhibitor, single point]
O=c1oc2c3c4c(cc2s1)CCCN4CCC3 44.7 µM [inhibitor, single point]
Cc1ccc(Cn2c(C(=O)Nc3ccc(Cl)cc3)cc3sccc32)cc1 11.2 µM [inhibitor, partial curve]
COCCCn1c(C)nc2c(c1=O)c1nc3ccccc3nc1n2CCc1ccccc1 31.6 µM [inhibitor, single point]
O=C(OCc1cc(Cl)ccc1OC(F)F)c1cccnc1 44.7 µM [inhibitor, single point]
COc1ccc(Nc2ncnc3c2cnn3-c2cc(Cl)ccc2C)cc1OC 39.8 µM [activator, single point]
CCC(C)NC(=O)Cn1c(-c2ccccc2)cc(C(C)=O)c1C (configuration not stated) 39.8 µM [inhibitor, single point]
O=C(COc1ccccc1)N1CCN=C1SCc1cccnc1 39.8 µM [inhibitor, partial curve]
CN(C)S(=O)(=O)Oc1ccsc1C(=O)Nc1cccc(Cl)c1Cl 6.31 µM [inhibitor, partial curve, poor fit]
O=C(NCCOc1cccc(Cl)c1Cl)c1cc(-n2cnnc2)ccc1Cl 44.7 µM [inhibitor, single point]
COc1cccc(NC(=S)N/N=C2\CC(C)(C)Oc3ccc(O)cc32)c1 25.1 µM [activator, single point]

Potency, active:
Cc1ccc2c(CC(=O)Nc3cccc(C(F)(F)F)c3)coc2c1 25.1 µM
Fc1ccc(Nc2nc(SCc3cccc(F)c3)nc3ccccc23)cc1 14.1 µM

Reference: PubChem BioAssay AID1468 (National Center for Advancing Translational Sciences (NCATS), 2008)
